Measured values taken from EPA's CvTdb concentration-time database.
This continues a long series; more values of the same kind are listed elsewhere.

Tests used:
Test in all cases: concentration in plasma after dosing
Rat [1] = conditions: dosed: Perfluorohexane-1-sulphonic acid – potassium salt, 16 mg/kg, oral, Female, Harlan Sprague Dawley
Rat [2] = conditions: dosed: Perfluorohexane-1-sulphonic acid – potassium salt, 16 mg/kg, oral, Female, Harlan Sprague Dawley; remark: listed apart in the source
Rat [3] = conditions: dosed: Perfluorohexane-1-sulphonic acid – potassium salt, 32 mg/kg, oral, Female, Harlan Sprague Dawley
Rat [4] = conditions: dosed: Perfluorohexane-1-sulphonic acid – potassium salt, 32 mg/kg, oral, Male, Harlan Sprague Dawley
Rat [5] = conditions: 96 h; dosed: Perfluorohexane-1-sulphonic acid – potassium salt; 16 mg/kg; oral; Female; Harlan Sprague Dawley
Rat [6] = conditions: 528 h; dosed: Perfluorohexane-1-sulphonic acid – potassium salt; 16 mg/kg; oral; Female; F344
Rat [7] = conditions: dosed: Perfluorohexane-1-sulphonic acid – potassium salt, 4 mg/kg, Female, Harlan Sprague Dawley
Rat [8] = conditions: dosed: Perfluorohexane-1-sulphonic acid – potassium salt, 4 mg/kg, Female, F344
Rat [9] = conditions: dosed: Perfluorohexane-1-sulphonic acid – potassium salt, 32 mg/kg, oral, Female, Harlan Sprague Dawley; remark: listed apart in the source
Rat [10] = conditions: 24 h; dosed: Perfluorohexane-1-sulphonic acid – potassium salt; 16 mg/kg; oral; Female; F344
Rat [11] = conditions: 24 h; dosed: Perfluorohexane-1-sulphonic acid – potassium salt; 16 mg/kg; oral; Female; Harlan Sprague Dawley
Rat [12] = conditions: dosed: Perfluorohexane-1-sulphonic acid – potassium salt, 4 mg/kg, Female, F344; remark: listed apart in the source
Rat [13] = conditions: 3 h; dosed: Fluorotelomer alcohol 8+2; 24 mg/kg; oral; Male; Harlan Sprague Dawley
Rat [14] = conditions: dosed: Fluorotelomer alcohol 8+2, 48 mg/kg, oral, Male, Harlan Sprague Dawley
Rat [15] = conditions: 1 h; dosed: Fluorotelomer alcohol 8+2; 24 mg/kg; oral; Male; Harlan Sprague Dawley
Rat [16] = conditions: dosed: Fluorotelomer alcohol 8+2, 40 mg/kg, oral, Female, Harlan Sprague Dawley
Rat [17] = conditions: 3 h; dosed: Fluorotelomer alcohol 8+2; 160 mg/kg; oral; Female; Harlan Sprague Dawley
Rat [18] = conditions: dosed: Isoeugenol, 140 mg/kg, oral, Female, F344/N
Rat [19] = conditions: dosed: Isoeugenol, 17 mg/kg, iv, Male, F344/N
Rat [20] = conditions: dosed: Isoeugenol, 140 mg/kg, oral, Male, F344/N
Rat [21] = conditions: dosed: Isoeugenol, 70 mg/kg, oral, Female, F344/N
Rat [22] = conditions: dosed: Isoeugenol, 140 mg/kg, oral, Male, F344/N; remark: listed apart in the source
Rat [23] = conditions: dosed: Isoeugenol, 140 mg/kg, oral, Female, F344/N; remark: listed apart in the source
Rat [24] = conditions: dosed: Isoeugenol, 70 mg/kg, oral, Female, F344/N; remark: listed apart in the source
Rat [25] = conditions: dosed: Isoeugenol, 140 mg/kg, oral, Female, F344/N; remark: listed apart in the source
Rat [26] = conditions: dosed: Isoeugenol, 140 mg/kg, oral, Male, F344/N; remark: listed apart in the source
Rat [27] = conditions: dosed: Isoeugenol, 140 mg/kg, oral, Male, F344/N; remark: listed apart in the source
Rat [28] = conditions: dosed: Isoeugenol, 17 mg/kg, iv, Female, F344/N
Rat [29] = conditions: dosed: Isoeugenol, 140 mg/kg, oral, Male, F344/N; remark: listed apart in the source
Rat [30] = conditions: 20 min; dosed: Isoeugenol; 17 mg/kg; iv; Male; F344/N
Rat [31] = conditions: dosed: Isoeugenol, 140 mg/kg, oral, Male, F344/N; remark: listed apart in the source
Rat [32] = conditions: dosed: Isoeugenol, 70 mg/kg, oral, Male, F344/N

O=S(=O)([O-])C(F)(F)C(F)(F)C(F)(F)C(F)(F)C(F)(F)C(F)(F)F.[K+] [Perfluorohexane-1-sulphonic acid – potassium salt]
Conditions	concentration in plasma [ng/mL]
Rat [1], 0.25 h	39000
Rat [1], 288 h	1930
Rat [2], 1 h	72300
Rat [2], 528 h	35
Rat [3], 6 h	172000
Rat [3], 96 h	27800
Rat [4], 0.25 h	47900
Rat [4], 12 h	187000
Rat [4], 528 h	43700
Rat [7], 1 h	36300
Rat [7], 48 h	7970
Rat [8], 5 min	63600
Rat [8], 6 h	26100
Rat [8], 192 h	590
Rat [9], 1 h	142000
Rat [9], 24 h	81600
Rat [9], 288 h	1160
Rat [12], 0.25 h	51000
Rat [12], 12 h	22900
Rat [12], 288 h	242

Conditions	concentration in plasma [ng/mL]
Rat [5]	27000
Rat [6]	37200
Rat [10]	143000
Rat [11]	64800

O=C(O)CCC(F)(F)C(F)(F)C(F)(F)C(F)(F)C(F)(F)C(F)(F)C(F)(F)F [Fluorotelomer acid 7+3]
Conditions	concentration in plasma [ng/mL]
Rat [13]	1530
Rat [15]	716
Rat [17]	7090

concentration in plasma [ng/mL]
Conditions	0.25 h	0.75 h	6 h	12 h
Rat [14]	30.2	–	2420	–
Rat [16]	–	1180	–	850

C/C=C/c1ccc(O)c(OC)c1 [Isoeugenol]
Conditions	concentration in plasma [ng/mL]
Rat [18], 1 h	993
Rat [18], 4 h	512
Rat [19], 1.5 h	116
Rat [19], 5 min	7920
Rat [20], 1.5 h	850
Rat [20], 3 h	224
Rat [21], 1.5 h	251
Rat [21], 20 min	970
Rat [22], 2 h	495
Rat [22], 10 min	1620
Rat [23], 0.5 h	1100
Rat [23], 10 h	143
Rat [24], 0.5 h	426
Rat [24], 8 h	108
Rat [25], 2 h	327
Rat [25], 20 min	1590
Rat [26], 1.5 h	463
Rat [26], 3 h	453
Rat [27], 1 h	418
Rat [27], 8 h	337
Rat [28], 6 h	25.3
Rat [28], 10 min	3870
Rat [29], 2 h	309
Rat [29], 2 min	3410
Rat [31], 6 h	813
Rat [31], 20 min	2170
Rat [32], 0.75 h	199
Rat [32], 8 h	100

Conditions	concentration in plasma [ng/mL]
Rat [30]	1900
